Measured values reported in the supplement of paper PMC11417369.
This is one part of the list.

The sequences below were run on PfHDP1 homeodomain (GST-tagged) (assay: gcPBM binding intensity (ln(normalized median fluorescence intensity)); higher = stronger DNA binding).
Outline: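 GST-fused DNA-binding domains of P. falciparum, expressed in E. coli, were applied at about 25 μg on average for 1 h to an Agilent 4 × 180k array of primer-extended double-stranded 36-bp intergenic genomic probes and negative controls. Binding intensity is the highest Masliner-normalised natural-log median intensity across replicate spots of either probe orientation, measured with Alexa488 anti-GST antibody and a 488 nm scan.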

Point of comparison: “ATTTTTTTTTTTTTTTTTTTTTTTTTTTTTGTTGTT [CACACA_negctrl_site1313]”, “gcPBM binding intensity (ln)” value 5.91. Against it:
- TATGAAAAGATATATACACACATAATAAAGGTATAT [CACACA_site7713] — higher, 6.38
- CATTATTATTAACATACACACGTGTTAAATACACCC [CACACA_site6118] — higher, 7.37
- ATTAAAACAAAATGTACACACATATCATTTAATGAC [CACACA_site6543] — higher, 6.29
- CTATTTCAATTTAGTGCACACATTTTAATTTATAAG [CACACA_site2040] — higher, 10.9
- ACATACACATATACATGTACATATATATATATATAT [XGTACX_site5082] — higher, 9.33
- TTTTAATCTTAATTATGTACATATAAAATGTGTATA [XGTACX_site7382] — higher, 6.27
- TATAAATTTAAAATGACACACACTAAAATTATTTAA [CACACA_site1239] — higher, 6.48
- TATATATATATATATATATATATATATATATGTATA [TGCATGCA_negctrl_site17] — higher, 9.25
- GTATTATTATTATGCACACAAAAATATTTATACATA [CACACA_site3656] — higher, 10.9
- CATATGTCTTGAGATCGTACGTTATTTTTTTTATTT [XGTACX_site1381] — higher, 6.99
- AAAAATTATATATATATATATATATATATATGTATA [GTGCAC_negctrl_site488] — higher, 7.61
- TGGTAAATTTACCGTTGTACATTCATTTATAACATT [XGTACX_site8910] — higher, 6.44
- AAGAATATTAATATAAATAAGTAAATAAATAAATAA [CACACA_negctrl_site417] — higher, 6.42
- CGCGCCCAGAAACACACACACACACCGATATATATA [CACACA_site5250] — higher, 6.83
- TAATGTATCTAAAATTGTACAAATATAAATCTAAAT [XGTACX_site1197] — higher, 6.49
- ATATATCTTCTTTGCACACTTAAAGGGAAGTGATAA [CACACA_site342] — higher, 10.2
- AAAATAATAAAAAAAAAAAAAAAAAAAAAAAAGTAT [TGCATGCA_negctrl_site193] — higher, 6.22
- AAATAAAATAAAACAACACACACGAATGTATAAATA [CACACA_site885] — higher, 6.68
- AAAAAAATAATAAAATGTACAAATAAACACATAAAG [XGTACX_site5102] — higher, 6.76
- ACAAAGATAAAACATAAAATATATCAAACATAAAAT [XGTACX_negctrl_site198] — higher, 6.35
- AATAAATATAAATACACACCCATATAAATATAAATA [CACACA_site7264] — higher, 6.85
- AAAAAAAATACATGTTGTACGGTACAAATATAAAGT [XGTACX_site2863] — higher, 7.52
- TACATATTGAATAAGACACACATATATATATATATA [CACACA_site1878] — higher, 9.43
- TAAGGATTGGTATAAAGTACAGGAGTAAATTGAAAA [XGTACX_site8525] — higher, 6.5
- CATACACATATATATTGTACACATATATGTATGTAT [XGTACX_site4030] — higher, 6.58
- ATATTTTTTTTTTATTGTACCCTCATAAAAGAAAAG [XGTACX_site773] — higher, 6.36
- TACAACAAGTAATGGTGTACATTATATTATGTAATA [XGTACX_site1194] — higher, 6.37
- TATAACAATTTTTATGCATGCGACTATAATATTTTT [TGCATGCA_site508] — higher, 6.62
- TATATACACGCACATACACACAAATAAAAAAACACC [CACACA_site7578] — higher, 8.22
- GTATTATTCTATAGAAGTACAGTATATTATTATTTA [XGTACX_site5073] — higher, 6.26
- TGTGTTGTAATTAAAACACACATGAAAAAATTAAAA [CACACA_site51] — higher, 6.62
- AAAAAAATAAATAAATGTACATATATAAAACATTGT [XGTACX_site2136] — higher, 6.67
- ATATAATTATATTCCATACACACATATATTTAAAGG [CACACA_site2958] — higher, 6.8
- AAACGAGAACATAATAAATACATAAATAAATAAATA [GTGCAC_negctrl_site433] — higher, 6.43
- ATATACATATCAATGTAATATTATATACTTTTTTAG [CACACA_negctrl_site816] — higher, 6.13
- TTAGATATTATTATATGTACATATTATATGTATTAT [XGTACX_site3836] — higher, 6.37
- TAGTTAATATGATTATGTACATATATATATTAATTT [XGTACX_site1750] — higher, 6.32
- ATAATATATTTATAAACACACAAAAAAAGTTATATA [CACACA_site6831] — higher, 6.73
- TGTATATGAAAAAATAGTACTCATATAAATATCTTT [XGTACX_site6542] — higher, 6.29
- ATTAATAATATTACATGTACATAATATAATTGAAAA [XGTACX_site5084] — higher, 6.72
- TTTATTTTATTCACTATCATAAGCAAAACTTAAACA [GTGCAC_negctrl_site287] — higher, 6.17
- AATATATTAAATATTACACACATACATTTAGTGTAA [CACACA_site5145] — higher, 6.35
- TAGTTCTTTTAATTTAGTATTATACAATATTGGAAA [CACACA_negctrl_site521] — higher, 6.3
- TATATATTAAACTTTGCACACATAATTTAACTACAA [CACACA_site3440] — higher, 10.7
- TTAATCCACAGACACACACACACAAAATAAAATACA [CACACA_site244] — higher, 6.88
- TTATTTATGAAGTATACACACAATATATATATATAT [CACACA_site1248] — higher, 9.09
- TACATTGTATACATATGTACACATATATATATATAT [XGTACX_site6174] — higher, 9.17
- TATTTATGTTATAATTGTACAATAAACAAATTTTTT [XGTACX_site5306] — higher, 6.53
- AAAAAAATCTATATTACACACATATATACCTATATA [CACACA_site7464] — higher, 6.36
- AAATGGGCTTATTTATGTACTTAAATATATCTACCC [XGTACX_site3823] — higher, 6.44
- TAATCAATTCAATATTGTACGATATTTACCTTTAAA [XGTACX_site4678] — higher, 7.25
- CCCACATAAAAAAATAAACACACATATGTATATATA [CACACA_site9040] — higher, 7.07
- AACCTCGTGTAATATGCATGTTCCCTTCAAAGTTTT [TGCATGCA_site459] — higher, 6.43
- TACATATATATATACACACATACATATATATACGCA [CACACA_site792] — higher, 6.77
- ATATTTTGTATAATCACACACACTATTCTTAAATAG [CACACA_site7270] — higher, 6.59
- AGAAATTAATCGAAGTGTACATATAAACATACATAT [XGTACX_site5518] — higher, 6.39
- ATTATACATTTTAGATGTACATATTTTAAATTTAAT [XGTACX_site5174] — higher, 6.35
- AACAAACAAACAAATATACACACTTTTGTATAAAGT [CACACA_site3509] — higher, 6.68
- TATTTATTTGTGGGGTGTACGAAATTTTTTTTTTTT [XGTACX_site5091] — higher, 7.67
- ATCTATGGAGCTTATACACACTTTTATATTTTAACA [CACACA_site5994] — higher, 7.29
- TTTGAATTTTTATATACACACATTATTATATTATAT [CACACA_site1593] — higher, 7.02
- TATATATATATAATGTGTACATACTAAATAGAGGAC [XGTACX_site4153] — higher, 9.05
- TAAATATAAAAATGCACACACACAAAAAAAAAAAAA [CACACA_site895] — higher, 9.29
- GAAATGTATAAATCCATACACACATAAATTTTAATA [CACACA_site2364] — higher, 6.31
- TTTACATTAAATCACGCACACAAAAAAAAAAAAAAA [CACACA_site2418] — higher, 6.62
- ATAGGTGAATACTAATATAAATTCAAGAGGGAAAAG [CACACA_negctrl_site720] — higher, 6.17
- TGATATTATATATATACACACATGTATGTATATATA [CACACA_site1364] — higher, 6.5
- ATAAATATATGATAAAGTACATATTTATATAATAAA [XGTACX_site7263] — higher, 6.22
- ATGTATCTATATATATGTACACATATTTTAATTAAA [XGTACX_site3673] — higher, 6.66
- ATATTTATTTATAATTGTACTAATAATATATTTTAA [XGTACX_site587] — higher, 6.1
- TTTTTCATGTTTATTAGTACATATATTAAGAATGGA [XGTACX_site3493] — higher, 6.35
- TTTTGTAAATATATATGTACATATATATATATATAT [XGTACX_site5803] — higher, 9.31
- ACCTATTTATAATAGTGTACGTACAAATTTGTTTAC [XGTACX_site8176] — higher, 6.71
- AAAATAAAAAATTAATGTACTTAGAATTGTCACTAA [XGTACX_site1346] — lower, 5.87
- TAAAATAATAAACAGAAGAAATCATTCATATAAAAA [XGTACX_negctrl_site502] — higher, 6.02
- AATTTGTTGAAACACACACACACATACATATATATA [CACACA_site2287] — higher, 7.02
- GGAATAAATAATATTATACACACGTATATTATTATA [CACACA_site2435] — higher, 6.31
- AAGCTTTCATAAAGATGTACTTTTTAAAAATAATCT [XGTACX_site5725] — higher, 6.07
- TGTGCATAATTTTGTGCACACCACGCTAATAATTTT [CACACA_site2915] — higher, 11.5
- CAAAAAAAGGAAAAGATACACACCGTAAATTAAAAT [CACACA_site3612] — higher, 6.66
- AAATTTAGGAACATTATATATATATATATATATATA [CACACA_negctrl_site862] — higher, 9.43
- TATTTCATCTTATTTTAGGAAAAACTAATATATAAG [CACACA_negctrl_site1823] — higher, 6.06
- TATTCGTCTTTTTTCTCACACACCCTTTTTATTAAA [CACACA_site2508] — higher, 7.09
- GAACATTTGAAATATGCACACATGTATAAACCTACA [CACACA_site2654] — higher, 9.12
- TAAAAATAAAGAAAATGTACATAAATAATAATACAT [XGTACX_site2278] — higher, 6.45
- AAATTAAAGGCATAAAAGAAAATATTTAATAAAAAA [CACACA_negctrl_site1689] — higher, 6.08
- AAAGAAAATAACAAAATTTTGAAAACATCACATTCG [CACACA_negctrl_site89] — higher, 6.83
